Test results from PubChem BioAssay AID624418 (National Center for Advancing Translational Sciences (NCATS), 2012).
Among all 410,000 compounds or so, about 530 (0.13%) were called active. The inconclusive results got no clear call from the source; some entries with a clear call stand among them for comparison. The call rests on the fitted dose curve; in most records, active means well fitted inhibition curve with a large enough effect; inconclusive means small, poorly fitted or top-dose-only effect, or another doubt; inactive means no such curve, though single readings can be large or run the other way. Where the call is inconclusive, the potency comes from a doubtful curve fit.

Assay: qHTS of GLP-1 Receptor Inverse Agonists: Cytotox Screen
Conditions: HEK293 cAMP-luciferase reporter cells, luminescence, 24 h; series mostly up to 38.3 µM
Summary of the method: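 Here, cytotoxicity is scored as loss of luminescence. The MLSMR collection was tested on cells seeded in medium containing 10% Nu serum, with a 24 hr compound exposure preceded by 12 hours of culture.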
Potency means the concentration at half of the fitted maximal effect.

SMILES | Potency
C1CCCCCC(NCCN2CCNCC2)CCCCC1 | active: 11.2 µM
O=C(N/N=C/c1ccccn1)c1sc2ccccc2c1Cl | inconclusive: 2.24 µM [inhibitor, full curve, poor fit]
Cc1cc(N)ccc1N=Nc1c(C)n(C)n(-c2ccccc2)c1=O | inconclusive: 12.6 µM [inhibitor, single point]
COc1ccccc1-c1cnc(C(O)c2ccccc2)[nH]1 (stereo not drawn) | inactive
COc1cc(NC(=O)c2cnc(N)s2)cc(C(=O)Nc2cccc(C(F)(F)F)c2)c1 | inactive
C=Cc1ccc(Cn2c(C(=O)O)c(CNCc3ccccc3)c3ccc(C)cc32)cc1 | inconclusive: 28.2 µM [inhibitor, single point]
COc1cc(NC(=O)c2ccccc2)c(OC)cc1NC(=O)CN1C(=O)NC2(CCCCC2)C1=O | inconclusive: 11.2 µM [inhibitor, single point]
Cc1ccc(-c2csc(=Nc3ccc(F)cc3)n2Cc2ccc3c(c2)OCO3)cc1C | inactive
CCCCCOC(=O)Cn1c(SCC(=O)Nc2ccccc2)nc2c1c(=O)[nH]c(=O)n2C | inconclusive: 7.08 µM [inhibitor, partial curve, poor fit]
Cc1cc(C)nc(-n2ncc3c2CC(c2ccc(C(C)C)cc2)CC3=O)n1 (stereo not drawn) | inconclusive: 31.6 µM [inhibitor, single point]
COC(=O)c1c(C)oc2ccc(N(C(=O)c3ccncc3)S(=O)(=O)c3ccc(C)cc3)cc12 | inconclusive: 1 µM [inhibitor, full curve, poor fit]
CCCCCC(=O)NC(=S)Nc1ccc(Cl)cn1 | inconclusive: 28.2 µM [inhibitor, single point]
COc1ccc(/C=C2/C(=O)OCc3cc(OC)c(OC)cc32)c(OC)c1 | inconclusive: 11.2 µM [inhibitor, single point]
CN(CCOc1cccc(C(F)(F)F)c1)Cc1ccccc1 | inconclusive: 11.2 µM [inhibitor, single point]
O=C1OCC2=C1C(c1ccc(F)cc1)c1cc3c(cc1N2)OCCO3 (stereo not drawn) | inconclusive: 0.501 µM [inhibitor, full curve, poor fit]
Nc1ccc(CCc2nc3ccccc3o2)cc1 | inactive
C=Cc1c(C)c2cc3[nH]c(cc4nc(cc5nc(cc1[nH]2)C(C)=C5CCC(=O)O)C(CCC(=O)O)=C4C)c(C)c3C=C | inconclusive: 28.2 µM [inhibitor, single point]
CCOCc1cc(CN2CCN(c3cccc(Cl)c3)CC2)c(O)c2ncccc12 | inconclusive: 3.16 µM [inhibitor, partial curve]
COc1ccc(/C=N/Nc2cc(C)nc(NS(=O)(=O)c3ccc(C)cc3)n2)cc1 | inconclusive: 31.6 µM [inhibitor, single point]
CCNC(=O)N1CCNC(=O)C1CC(=O)OC (stereo not drawn) | inactive
Cc1ccccc1CS(=O)(=O)c1ncc(Cl)c(C(=O)Nc2ccc(F)cc2)n1 | inconclusive: 28.2 µM [inhibitor, single point]
CC(=O)c1cccc(NC(=O)C(C)Sc2nnc3ccccn23)c1 (stereo not drawn) | inactive

SMILES | Potency
CCOC(=O)c1sc(NC(=O)c2cc(-c3ccc(F)cc3)on2)c(C(=O)OCC)c1C | inactive
COc1ccc(NC(=O)CN2CCCN(S(=O)(=O)c3ccc(F)cc3)CC2)cc1 | inactive
O=C1CCCc2c1cc(C(=O)NC1CCSC1=O)c(=O)n2-c1ccccc1 (stereo not drawn) | inactive
Oc1ccc(/C=N/Nc2nc(N3CCCCCC3)nc(N3CCCCCC3)n2)c(O)c1 | inconclusive: 7.94 µM [inhibitor, partial curve, poor fit]
C[C@@]12C(=O)N(CC3CCCO3)CC(=O)N1[C@H]1c3ccccc3OC[C@@H]1[C@@H]2c1ccccc1 (stereo partly drawn) | inconclusive: 28.2 µM [inhibitor, single point]
O=C(COC(=O)/C=C/c1ccco1)NCc1ccc(Cl)cc1 | inactive
CNc1cc(CSC)nc(SCc2ccc(Cl)cc2Cl)n1 | inconclusive: 20 µM [inhibitor, single point]
CC(C)C(=O)NC(c1ccccc1)c1cc([N+](=O)[O-])c2cccnc2c1O (stereo not drawn) | inconclusive: 20 µM [inhibitor, single point]
Nc1c(Cl)ncnc1N/N=C/c1ccc2ccccc2n1 | inconclusive: 3.16 µM [inhibitor, full curve]
C[C@H]1CN([C@@H](C)CO)C(=O)Cc2cc(NC(=O)CCN3CCOCC3)ccc2O[C@@H]1CN(C)Cc1ccc(Oc2ccccc2)cc1 | inactive
COc1ccc(C(=O)Nc2ccccc2SCc2cc(=O)n3nc(C)sc3n2)cc1OC | inactive
C=CCSc1nnc(NC(=O)CCNC(=O)c2ccco2)s1 | inconclusive: 3.98 µM [inhibitor, full curve, poor fit]
O=C(CSc1nc2ccccc2s1)CSc1nc2ccccc2s1 | inactive
CCn1ccc(C(=O)Nc2ccsc2C(=O)OC)n1 | inconclusive: 7.94 µM [inhibitor, partial curve]
CCN(CC)c1ccc(C(NC(=O)C(C)C)c2ccc3cccnc3c2O)cc1 (stereo not drawn) | inconclusive: 5.62 µM [inhibitor, full curve, poor fit]
CCOc1c(Cl)cc(CNC(C)(C)CC(C)(C)C)cc1OC | inconclusive: 28.2 µM [inhibitor, single point]
COC(=O)c1cc2oc3ccccc3c2n1Cc1cc(C)ccc1C | inactive
CC1(C(=O)NCc2cccs2)Cc2c(-c3ccc4c(c3)OCO4)ccnc2O1 (stereo not drawn) | inconclusive: 1.26 µM [inhibitor, full curve, poor fit]
CCCCSc1nc(C)cc(SCC(=O)N/N=C/c2cccc(OC)c2O)n1 | inconclusive: 2.24 µM [inhibitor, full curve, poor fit]
S=C(NCc1ccccc1Cl)NC1CCCC1 | inconclusive: 28.2 µM [inhibitor, single point]
O=[N+]([O-])c1cc(C(F)(F)F)cc([N+](=O)[O-])c1NCCNC(=S)Nc1ccc(Cl)c(Cl)c1 | inconclusive: 12.6 µM [inhibitor, single point]
